The source of these data is the RNAGym collection of RNA variant scans (doi:10.7554/elife.90254).

Read counts are not given, so values of variants with three or more changes are uncertain.

B1: LINE1-mini (parent)
chain: GGCAGAGCUCAACACAGCGUGGCAAAGUGGCUGUGGCUAGACUGCC

The series covers variants of B1. The series can be described thus: self-cleavage, relative activity (ratio to wild type); higher = more cleavage; in vitro, sequencing; the parent is a self-cleaving ribozyme.
As for A6U A14U C18A C31G U34A G36U C46G, the self-cleavage is 0.

As for A6G C10A U28G G35U, the self-cleavage came to 0.04.

In the case of A6G G27U C46A, the self-cleavage came out at 0.1.

A6G C10U G40A: the self-cleavage came out at 0.01.

For A6G G44A C46A, the self-cleavage turned out to be 0.

As to A6G C23U A25U G35U G44A, the self-cleavage turned out to be 0.07.

A6G G22A U28G C42A: the self-cleavage was found to be 0.1.

A6G C8U C10A C15G C23A: the self-cleavage was 0.01.

Take A6G G19A A26C A41C: the self-cleavage is 0.05.

For A6G U20C C42G, the self-cleavage is 0.06.

Regarding A6G G33U G35U, the self-cleavage amounted to 0.02.

A6G C8G U9C C10A C42G: the self-cleavage was 0.02.

Take A6U A12U A14G C46G: the self-cleavage stood at 0.01.

With A6G C15A G27U, the self-cleavage stood at 0.03.

Regarding A6G A25U G27U U38G A41G G44U, the self-cleavage stood at 0.

Consider A6G C10A G22A C31A, for which the self-cleavage is 0.02.

On to A6G G30A C31A C42U, for which the self-cleavage was determined as 0.

Consider A6G C18G G33A G35A, for which the self-cleavage was found to be 0.04.

As to A6G A41U G44A C45G, the self-cleavage came to 0.03.

Consider A6G G19C A39G, for which the self-cleavage was found to be 0.

As for A6G U20A G44U, the self-cleavage amounted to 0.1.

A6G G7U U9A A39G: the self-cleavage amounted to 0.04.

A6G G17U A41U C42U: the self-cleavage came out at 0.02.

Turning to A6G G22U U43A C46A, the self-cleavage is 0.44.

As to A6U A12C A24C U34G, the self-cleavage came to 0.04.

Regarding A6G U9G A12G C15A G19C A26C, the self-cleavage worked out at 0.02.

Take A6G G22C U28C G29U: the self-cleavage came to 0.04.

Take A6G C8U C13G C31U G35A: the self-cleavage was 0.17.

Take A6G A24U G36U A41C: the self-cleavage amounted to 0.07.

Take A6G A26U C45G: the self-cleavage stood at 0.15.

As for A6G A16U G21A C23U A26U, the self-cleavage was determined as 0.09.

As to A6G G29C A41C G44A, the self-cleavage turned out to be 0.02.

Regarding A6G C42G C46G, the self-cleavage is 0.01.

A6G C18A C31U G44U: the self-cleavage was 0.08.

As for A6U A14C U43C, the self-cleavage amounted to 0.03.

Turning to A6G C31A U32A G35C, the self-cleavage worked out at 0.07.

For the variant A6G U20A A26U U28A G30U, the self-cleavage was 0.08.

Consider A6G U20G G22U C42U, for which the self-cleavage turned out to be 0.08.

Consider A6G U9G C10U A12G G22U A25U A26G, for which the self-cleavage worked out at 0.02.

With A6G U20G G33U C42G, the self-cleavage was 0.07.

In the case of A6U A11U C18A G19C G29A C42G, the self-cleavage turned out to be 0.

On to A6G G17A A26C A39G, for which the self-cleavage was 0.01.

On to A6G G7A A24G C42G, for which the self-cleavage is 0.02.

With A6G G30C A41C, the self-cleavage came out at 0.06.

A6G C18U C37U: the self-cleavage came out at 0.02.

With A6G U9A C10G C13U A16U G29C C37G, the self-cleavage came out at 0.01.

A6G C13A A26C G44U C45G: the self-cleavage worked out at 0.09.

As to A6G A24U A39G, the self-cleavage was 0.03.

For A6G U32A C46U, the self-cleavage came to 0.05.

A6G G7U C8A: the self-cleavage amounted to 0.13.

With A6G C10A A14C G21C, the self-cleavage worked out at 0.01.

With A6G C18A G29U G35A A39U C45U, the self-cleavage was found to be 0.05.

For A6G G7C A11C C13G G29U C42A, the self-cleavage stood at 0.01.

A6G G17A G22U G29U C46A: the self-cleavage worked out at 0.01.

On to A6G C10U U28C G36A, for which the self-cleavage amounted to 0.03.

As to A6G A24U U43A, the self-cleavage turned out to be 0.05.

Turning to A6G A26C C31U, the self-cleavage amounted to 0.

As to A6G C10A A14U, the self-cleavage is 0.02.

As for A6G G17A C31G, the self-cleavage is 0.02.

Turning to A6G C15U A24C G29C U38G, the self-cleavage came out at 0.02.

In the case of A6G C15U A26G G29A U32A U38A A39C, the self-cleavage worked out at 0.13.

As for A6G G27U G29C G44U C46A, the self-cleavage was 0.01.

Consider A6G G40C A41G, for which the self-cleavage was determined as 0.03.

Regarding A6G G30A C42A C46G, the self-cleavage amounted to 0.13.

With A6G G17U G35U C37A, the self-cleavage stood at 0.

For A6G C13A C45A, the self-cleavage turned out to be 0.12.

For A6G C13U G21A C31G, the self-cleavage stood at 0.01.

With A6G G7A C13U G17C, the self-cleavage was 0.14.

Consider A6G C18U C46A, for which the self-cleavage came out at 0.16.

On to A6G C31U U38A C46A, for which the self-cleavage was 0.01.

Turning to A6G U20A A41G, the self-cleavage is 0.11.

For A6G C10A A14G A24G C46A, the self-cleavage turned out to be 0.02.

In the case of A6G A26G G33C U43C, the self-cleavage worked out at 0.02.

Turning to A6G C8U A41C C46A, the self-cleavage turned out to be 0.11.

Consider A6G G36A C37G, for which the self-cleavage was found to be 0.03.

Regarding A6G C31A U34G G44A, the self-cleavage stood at 0.05.

For A6G C13A G30U G33U, the self-cleavage was 0.04.

Regarding A6G C10A C15U G21U C37U, the self-cleavage is 0.

Consider A6U A12U U20C G27A, for which the self-cleavage turned out to be 0.07.

As for A6G C13G G29U G40U, the self-cleavage was found to be 0.12.

Turning to A6G U38A A39C, the self-cleavage was determined as 0.02.

On to A6G C10U G30A C42G, for which the self-cleavage was 0.07.

On to A6G U20A A24U, for which the self-cleavage is 0.13.

Regarding A6U A12C U38C, the self-cleavage came to 0.04.

In the case of A6G C10A G22U U38C G40A, the self-cleavage was determined as 0.

In the case of A6G G36U C45U, the self-cleavage was 0.05.

Consider A6G A16U C42U, for which the self-cleavage was 0.09.

A6G C13U G17U G22C G44U C45U: the self-cleavage was determined as 0.06.

As to A6G G27C G29U U38G, the self-cleavage is 0.

On to A6G C31U G33C G36A A39G, for which the self-cleavage is 0.06.

Consider A6G C18G G29U C37U, for which the self-cleavage was 0.07.

In the case of A6U A11G U43A C46A, the self-cleavage came to 0.01.

Turning to A6G C18U A24G G30C G40U G44C, the self-cleavage stood at 0.02.

With A6G C10G A12U C23U G33A, the self-cleavage came to 0.02.

On to A6G G17U C18U A39C, for which the self-cleavage turned out to be 0.

In the case of A6G G22A C37A, the self-cleavage came to 0.08.

Consider A6G C13A A16C G40A, for which the self-cleavage amounted to 0.06.

Take A6G G19C U28A A41U G44A: the self-cleavage was found to be 0.

As for A6U A12U G17A C18G C46A, the self-cleavage was 0.02.

Take A6G G19U G27U: the self-cleavage is 0.01.

With A6U A12G G44U C45G, the self-cleavage came out at 0.01.

For A6G A25C U38A G44C, the self-cleavage was found to be 0.06.

As to A6G C8G C10A A12C G30U A39C, the self-cleavage is 0.01.

For the variant A6G C23U G44C, the self-cleavage worked out at 0.04.

For A6U A12G C13U A41U, the self-cleavage worked out at 0.04.

In the case of A6U A12U A26U G40U C42A C46U, the self-cleavage worked out at 0.02.

For the variant A6G G19A A25G, the self-cleavage stood at 0.03.

As for A6U A12G G33C, the self-cleavage turned out to be 0.05.

For the variant A6G G7U C8A U9G C15A G27C, the self-cleavage stood at 0.02.

Consider A6G U9G A12C C13U C31A, for which the self-cleavage worked out at 0.

In the case of A6G G21C G40C A41C, the self-cleavage stood at 0.05.

As for A6G C10A G21A, the self-cleavage stood at 0.01.

As to A6G G7U G36U, the self-cleavage is 0.05.

As for A6G C8G G21U U34G G35U G40U C42U, the self-cleavage was determined as 0.02.

As for A6G C8U U9A C18A A41C C42U U43A, the self-cleavage came to 0.04.

For the variant A6U A12G G19C G35C, the self-cleavage came to 0.02.

As to A6G C15U G33A, the self-cleavage turned out to be 0.23.

For the variant A6G C23G C46A, the self-cleavage came to 0.05.

A6G C18G A24G A26U: the self-cleavage worked out at 0.02.

On to A6G C18A G19U U43C, for which the self-cleavage was 0.03.

In the case of A6U A11U A26C C42G, the self-cleavage stood at 0.01.

A6G C10G C46U: the self-cleavage stood at 0.05.

For A6G C15A C18U U34C U43G C46A, the self-cleavage is 0.02.

As for A6G G7C C45A, the self-cleavage was 0.29.

As to A6G C8U A11C G19A C23G G29U U38C, the self-cleavage is 0.

Turning to A6G C31G G35C, the self-cleavage came out at 0.04.

Regarding A6G C31G G35U, the self-cleavage turned out to be 0.03.

A6G U9G C37A: the self-cleavage is 0.08.

Turning to A6G G7U A11G G17C, the self-cleavage stood at 0.01.

Turning to A6U A11U C15A A16U, the self-cleavage came to 0.03.

As to A6G C13U G21A G40C, the self-cleavage is 0.1.

Turning to A6G C10A C37G, the self-cleavage is 0.

A6G U9G C10G C23U: the self-cleavage was 0.

On to A6G A16U G21A A25C U32G G33A, for which the self-cleavage came to 0.02.

As for A6G G17A A25U, the self-cleavage was found to be 0.03.

On to A6G A39G U43C C45G, for which the self-cleavage is 0.02.

Consider A6G G19A A26C C42U, for which the self-cleavage turned out to be 0.02.

Consider A6G G7C C37G A39G, for which the self-cleavage was found to be 0.

For the variant A6G G17A U43C, the self-cleavage amounted to 0.03.

A6G G7U A12C A24G G36U: the self-cleavage came out at 0.

With A6U A12G G35C, the self-cleavage was 0.04.

As for A6G C8G C13G, the self-cleavage worked out at 0.1.

In the case of A6G G33A G40A, the self-cleavage stood at 0.04.

Regarding A6G C10A U34C C42G, the self-cleavage turned out to be 0.04.

A6G G22A A26C: the self-cleavage stood at 0.01.

For A6G G21C A24C, the self-cleavage came out at 0.01.

On to A6U A11U C23G A26C, for which the self-cleavage stood at 0.27.

As for A6G G30A C31A, the self-cleavage was found to be 0.05.

For A6U A14G A41G, the self-cleavage came to 0.09.

For A6G G19C C23U A26U G40A, the self-cleavage amounted to 0.02.

On to A6G C23U U38A C42A C45G, for which the self-cleavage is 0.11.

For the variant A6G G30A U34C, the self-cleavage was determined as 0.01.

Consider A6G G29U G35U, for which the self-cleavage turned out to be 0.04.

Consider A6G C8A A11C A12C A24U, for which the self-cleavage is 0.02.

Regarding A6G G35C C46A, the self-cleavage stood at 0.08.

A6G A16U G27U: the self-cleavage is 0.02.

On to A6G U28G G40U, for which the self-cleavage stood at 0.06.

Take A6G A25C G40U: the self-cleavage amounted to 0.08.

Regarding A6G C15A A26U, the self-cleavage was found to be 0.01.

With A6G C10U C18A U34A, the self-cleavage is 0.03.

Take A6G C23A C37U: the self-cleavage was 0.01.

Regarding A6G U32C C42U, the self-cleavage worked out at 0.07.

For the variant A6G G7A C18A G19C U38C, the self-cleavage was found to be 0.17.

For A6U A14C C42G, the self-cleavage worked out at 0.08.

As for A6G G17A G21A G27U C31U, the self-cleavage is 0.1.

Consider A6G A16U G33U, for which the self-cleavage stood at 0.04.

A6G C15U A16U G29U G40U: the self-cleavage was 0.02.
